# Assay results: the supplement of paper PMC8728848
# Some of the results follow.
# How the values were obtained:
# Test in all cases: glycan array binding signal (z-score within array); higher = stronger binding
# Conditions in all cases: glycan notation: IUPAC condensed, linker removed
# [1] = target: Gal(b1-3)GalNAc(a1-3)[Fuc(a1-2)]Gal(b1-4)Glc
# Summary of the method: (§1)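 Columns mapping to the same glycan were averaged after glycan names were converted to IUPAC-condensed notation. The data come from 3228 arrays in the Consortium for Functional Glycomics database, limited to those with an available protein sequence. Binding is reported as a within-array Z-score averaged across arrays of one protein sequence and across linkers.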
# [2] = target: Gal(b1-3)GalNAc(a1-3)[Fuc(a1-2)]Gal(b1-4)GlcNAc
# Summary of the method: as §1
# [3] = target: Gal(b1-3)GalNAc(b1-3)Gal(a1-4)Gal(b1-4)Glc
# Summary of the method: as §1
# [4] = target: Gal(b1-3)GalNAc(b1-4)Gal(b1-4)Glc
# Summary of the method: as §1
# [5] = target: Gal(b1-3)GalNAc(b1-4)[Neu5Ac(a2-3)]Gal(b1-4)Glc
# Summary of the method: as §1
# [6] = target: Gal(b1-3)GlcNAc
# Summary of the method: as §1
# [7] = target: Gal(b1-3)GlcNAc(a1-3)Gal(b1-4)GlcNAc
# Summary of the method: as §1
# [8] = target: Gal(b1-3)GlcNAc(a1-6)Gal(b1-4)GlcNAc
# Summary of the method: as §1
# [9] = target: Gal(b1-3)GlcNAc(b1-2)Man(a1-3)[Gal(b1-3)GlcNAc(b1-2)Man(a1-6)]Man(b1-4)GlcNAc(b1-4)GlcNAc
# Summary of the method: as §1
# [10] = target: Gal(b1-3)GlcNAc(b1-2)Man(a1-3)[Gal(b1-3)GlcNAc(b1-2)Man(a1-6)]Man(b1-4)GlcNAc(b1-4)[Fuc(a1-6)]GlcNAc
# Summary of the method: as §1
# [11] = target: Gal(b1-3)GlcNAc(b1-2)Man(a1-3)[GlcNAc(b1-4)][Gal(b1-3)GlcNAc(b1-2)Man(a1-6)]Man(b1-4)GlcNAc(b1-4)GlcNAc
# Summary of the method: as §1
# [12] = target: Gal(b1-3)GlcNAc(b1-2)[Gal(b1-3)GlcNAc(b1-6)]Man(a1-6)[Gal(b1-3)GlcNAc(b1-2)Man(a1-3)]Man(b1-4)GlcNAc(b1-4)GlcNAc
# Summary of the method: as §1
# [13] = target: Gal(b1-3)GlcNAc(b1-3)Gal(b1-3)GlcNAc
# Summary of the method: as §1
# [14] = target: Gal(b1-3)GlcNAc(b1-3)Gal(b1-4)Glc
# Summary of the method: as §1
# [15] = target: Gal(b1-3)GlcNAc(b1-3)Gal(b1-4)GlcNAc
# Summary of the method: as §1
# [16] = target: Gal(b1-3)GlcNAc(b1-3)Gal(b1-4)GlcNAc(b1-6)[Gal(b1-3)GlcNAc(b1-3)]Gal(b1-4)Glc
# Summary of the method: as §1
# [17] = target: Gal(b1-3)GlcNAc(b1-3)Gal(b1-4)[Fuc(a1-3)]GlcNAc(b1-6)[Gal(b1-3)GlcNAc(b1-3)]Gal(b1-4)Glc
# Summary of the method: as §1
# [18] = target: Gal(b1-3)GlcNAc(b1-3)GalNAc
# Summary of the method: as §1
# [19] = target: Gal(b1-3)GlcNAc(b1-6)Gal(b1-4)GlcNAc
# Summary of the method: as §1
# [20] = target: Gal(b1-3)GlcNAc(b1-6)GalNAc
# Summary of the method: as §1
# [21] = target: Gal(b1-3)GlcNAc6S
# Summary of the method: as §1
# [22] = target: Gal(b1-3)[Fuc(a1-4)]GlcNAc
# Summary of the method: as §1
# [23] = target: Gal(b1-3)[Fuc(a1-4)]GlcNAc(b1-2)Man(a1-3)[Gal(b1-3)[Fuc(a1-4)]GlcNAc(b1-2)Man(a1-6)]Man(b1-4)GlcNAc(b1-4)GlcNAc
# Summary of the method: as §1
# [24] = target: Gal(b1-3)[Fuc(a1-4)]GlcNAc(b1-2)Man(a1-3)[Gal(b1-3)[Fuc(a1-4)]GlcNAc(b1-2)Man(a1-6)]Man(b1-4)GlcNAc(b1-4)[Fuc(a1-6)]GlcNAc
# Summary of the method: as §1
# [25] = target: Gal(b1-3)[Fuc(a1-4)]GlcNAc(b1-3)Gal(b1-3)[Fuc(a1-4)]GlcNAc
# Summary of the method: as §1
# [26] = target: Gal(b1-3)[Fuc(a1-4)]GlcNAc(b1-3)Gal(b1-4)GlcNAc
# Summary of the method: as §1
# [27] = target: Gal(b1-3)[Fuc(a1-4)]GlcNAc(b1-3)Gal(b1-4)[Fuc(a1-3)]GlcNAc
# Summary of the method: as §1
# [28] = target: Gal(b1-3)[Fuc(a1-4)]GlcNAc(b1-6)GalNAc
# Summary of the method: as §1
# [29] = target: Gal(b1-3)[GlcNAc(b1-6)]GalNAc
# Summary of the method: as §1
# [30] = target: Gal(b1-3)[Neu5Ac(a2-6)]GalNAc
# Summary of the method: as §1
# [31] = target: Gal(b1-3)[Neu5Ac(a2-6)]GlcNAc(b1-6)Gal(b1-4)Glc
# Summary of the method: as §1
# [32] = target: Gal(b1-3)[Neu5Ac(b2-6)]GalNAc
# Summary of the method: as §1
# [33] = target: Gal(b1-4)Gal
# Summary of the method: as §1
# [34] = target: Gal(b1-4)GalNAc(a1-3)[Fuc(a1-2)]Gal(b1-4)GlcNAc
# Summary of the method: as §1
# [35] = target: Gal(b1-4)GalNAc(b1-3)[Fuc(a1-2)]Gal(b1-4)GlcNAc
# Summary of the method: as §1
# [36] = target: Gal(b1-4)Glc
# Summary of the method: as §1
# [37] = target: Gal(b1-4)Glc6S
# Summary of the method: as §1
# [38] = target: Gal(b1-4)GlcNAc
# Summary of the method: as §1
# [39] = target: Gal(b1-4)GlcNAc(a1-6)Gal(b1-4)GlcNAc
# Summary of the method: as §1
# [40] = target: Gal(b1-4)GlcNAc(b1-2)Man
# Summary of the method: as §1
# [41] = target: Gal(b1-4)GlcNAc(b1-2)Man(a1-3)Man(b1-4)GlcNAc(b1-4)GlcNAc
# Summary of the method: as §1
# [42] = target: Gal(b1-4)GlcNAc(b1-2)Man(a1-3)[Gal(b1-4)GlcNAc(b1-2)Man(a1-6)]Man(b1-4)GlcNAc(b1-4)GlcNAc
# Summary of the method: as §1
# [43] = target: Gal(b1-4)GlcNAc(b1-2)Man(a1-3)[Gal(b1-4)GlcNAc(b1-2)Man(a1-6)]Man(b1-4)GlcNAc(b1-4)[Fuc(a1-6)]GlcNAc
# Summary of the method: as §1
# [44] = target: Gal(b1-4)GlcNAc(b1-2)Man(a1-3)[Gal(b1-4)GlcNAc(b1-2)][GlcNAc(b1-4)]Man(b1-4)GlcNAc(b1-4)GlcNAc
# Summary of the method: as §1
# [45] = target: Gal(b1-4)GlcNAc(b1-2)Man(a1-3)[GlcNAc(b1-2)Man(a1-6)]Man(b1-4)GlcNAc(b1-4)GlcNAc
# Summary of the method: as §1
binder,measurement,setting,value
"Calsepa (Calystegia sepium), P93114 (protein) MAVPMDTISGPWGNNGGNFWSFRPVNKINQIVISYGGGGNNPIALTFSSTKADGSKDTITVGGGGPDSITGTEMVNIGTDEYLTGISGTFGIYLDNNVLRSITFTTNLKAHGPYGQKVGTPFSSANVVGNEIVGFLGRSGYYVDAIGTYNRHK",glycan array binding signal (z-score),[1],-0.209
same,glycan array binding signal (z-score),[2],-0.222
same,glycan array binding signal (z-score),[3],-0.249
same,glycan array binding signal (z-score),[4],-0.252
same,glycan array binding signal (z-score),[5],-0.253
same,glycan array binding signal (z-score),[6],-0.249
same,glycan array binding signal (z-score),[7],-0.254
same,glycan array binding signal (z-score),[8],-0.271
same,glycan array binding signal (z-score),[9],1.8
same,glycan array binding signal (z-score),[10],-0.077
same,glycan array binding signal (z-score),[11],4.21
same,glycan array binding signal (z-score),[12],0.886
same,glycan array binding signal (z-score),[13],-0.249
same,glycan array binding signal (z-score),[14],-0.252
same,glycan array binding signal (z-score),[15],-0.25
same,glycan array binding signal (z-score),[16],-0.272
same,glycan array binding signal (z-score),[17],-0.274
same,glycan array binding signal (z-score),[18],-0.272
same,glycan array binding signal (z-score),[19],-0.274
same,glycan array binding signal (z-score),[20],-0.272
same,glycan array binding signal (z-score),[21],-0.273
same,glycan array binding signal (z-score),[22],-0.25
same,glycan array binding signal (z-score),[23],-0.073
same,glycan array binding signal (z-score),[24],-0.242
same,glycan array binding signal (z-score),[25],-0.248
same,glycan array binding signal (z-score),[26],-0.252
same,glycan array binding signal (z-score),[27],-0.253
same,glycan array binding signal (z-score),[28],-0.252
same,glycan array binding signal (z-score),[29],-0.249
same,glycan array binding signal (z-score),[30],-0.243
same,glycan array binding signal (z-score),[31],-0.248
same,glycan array binding signal (z-score),[32],-0.245
same,glycan array binding signal (z-score),[33],-0.26
same,glycan array binding signal (z-score),[34],-0.249
same,glycan array binding signal (z-score),[35],-0.241
same,glycan array binding signal (z-score),[36],-0.247
same,glycan array binding signal (z-score),[37],-0.248
same,glycan array binding signal (z-score),[38],-0.258
same,glycan array binding signal (z-score),[39],-0.25
same,glycan array binding signal (z-score),[40],-0.274
same,glycan array binding signal (z-score),[41],3.34
same,glycan array binding signal (z-score),[42],1.98
same,glycan array binding signal (z-score),[43],0.144
same,glycan array binding signal (z-score),[44],5.25
same,glycan array binding signal (z-score),[45],2.95
